# Reference: article PMC4336329 (PLoS ONE, 2015)
# Out of some 310,000 compounds screened, about 14,000 (4.5%) showed an effect of 50% or more. Effects have a minus sign here. The list shows a part of the results.
# Target: human ether-à-go-go-related gene (hERG) potassium channel (human, UniProt Q12809)
# Assay: primary screen, population patch clamp on CHO cells stably expressing hERG
# 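Further: peak tail current of the secondary pulse compared with the same well before compound.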
# Chain of human ether-à-go-go-related gene (hERG) potassium channel (Q12809 whole entry, looked up): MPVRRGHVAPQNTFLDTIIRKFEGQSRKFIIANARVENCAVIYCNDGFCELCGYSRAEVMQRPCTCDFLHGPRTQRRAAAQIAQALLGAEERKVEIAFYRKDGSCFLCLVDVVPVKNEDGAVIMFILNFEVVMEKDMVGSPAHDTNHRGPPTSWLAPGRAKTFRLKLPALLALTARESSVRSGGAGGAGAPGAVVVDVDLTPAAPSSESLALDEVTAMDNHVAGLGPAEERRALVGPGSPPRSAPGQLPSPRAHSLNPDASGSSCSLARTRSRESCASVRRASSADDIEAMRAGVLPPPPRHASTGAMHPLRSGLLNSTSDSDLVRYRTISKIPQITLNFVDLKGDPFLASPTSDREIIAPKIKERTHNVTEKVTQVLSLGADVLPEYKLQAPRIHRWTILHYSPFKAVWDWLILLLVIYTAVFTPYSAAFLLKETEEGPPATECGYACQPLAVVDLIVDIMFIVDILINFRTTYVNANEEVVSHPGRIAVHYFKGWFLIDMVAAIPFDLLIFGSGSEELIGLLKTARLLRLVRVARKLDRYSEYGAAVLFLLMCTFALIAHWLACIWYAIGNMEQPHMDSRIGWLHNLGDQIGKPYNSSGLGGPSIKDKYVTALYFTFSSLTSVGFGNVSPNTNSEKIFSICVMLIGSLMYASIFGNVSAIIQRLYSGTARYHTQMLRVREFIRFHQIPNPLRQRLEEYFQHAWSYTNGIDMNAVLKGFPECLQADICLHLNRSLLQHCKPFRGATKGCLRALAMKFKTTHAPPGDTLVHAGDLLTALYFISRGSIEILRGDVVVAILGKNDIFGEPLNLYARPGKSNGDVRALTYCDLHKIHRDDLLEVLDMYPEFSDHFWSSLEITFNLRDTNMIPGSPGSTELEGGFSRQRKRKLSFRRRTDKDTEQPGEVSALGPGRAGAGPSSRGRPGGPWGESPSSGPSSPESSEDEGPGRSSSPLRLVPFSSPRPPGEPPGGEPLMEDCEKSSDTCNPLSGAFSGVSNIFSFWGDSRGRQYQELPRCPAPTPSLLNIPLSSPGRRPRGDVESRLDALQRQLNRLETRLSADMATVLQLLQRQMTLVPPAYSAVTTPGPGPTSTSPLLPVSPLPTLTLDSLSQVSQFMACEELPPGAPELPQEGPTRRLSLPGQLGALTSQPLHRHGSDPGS
row,Structure (SMILES),"hERG current change (%, negative = inhibition) at 10uM"
1,COc1ccc(CN2CCN(CC3CC3)CC2CCO)c(C)c1C (stereo not shown),-0.714%
2,COc1ccc(N2CCN(CCCNC(=O)C3(S(=O)(=O)c4ccc(Cl)cc4)CC3)CC2)cc1,-61.5%
3,Cl.c1cncc(CNCc2ccco2)c1,23.5%
4,C[C@@H]1C=C(C(=O)NCc2ccccc2)O[C@H](OCc2ccc(CO)cc2)C1,3.74%
5,Nc1ccc(-c2cnc3ccccc3n2)cc1,0.217%
6,O=C(CSCC(=O)N1CCOCC1)Nc1nc(-c2ccccc2)cs1,-14.8%
7,C#CCNC(=O)C1=C[C@H](c2coc3ccccc3c2=O)C[C@H](OCc2ccc(CO)cc2)O1,-49.8%
8,N/C(Cn1cncn1)=N\NC(=O)C(=O)Nc1ccc(Cl)cc1Cl,7.64%
9,CC[C@@H](CO)C1CC2NC3CC4(c5ccccc5N(C)[C@@H]24)C(O)C31 (stereo partly shown),-19.6%
10,Fc1ccccc1CNCCc1ccc2c(c1)OCO2,-7.43%
11,CC(C)(C)c1cc(S(=O)(=O)CCc2ccncc2)cc(C(C)(C)C)c1F,18.5%
12,CCCCNc1nnc(CCn2nc(C)c(Br)c2C)s1,-19.5%
13,O=C(Nc1nnc(COc2ccc(Cl)cc2)s1)c1cccs1,-6.91%
14,CSc1ccccc1NC(=O)c1cc2c(=O)n3ccccc3nc2s1,1.31%
15,Cn1c(=O)n(C)c2cc(/C=N/n3cnnc3)ccc21,-3.11%
16,CCOC(=O)c1cc(-c2ccc(OC)cc2)n[nH]1,7.23%
17,CCCc1cc(=O)oc2c(C)c(OCC(=O)Nc3ccccn3)ccc12,-5.2%
18,Cc1cc(OCC(=O)Nc2ccccc2N2CCCCC2)ccc1C(C)C,12.4%
19,c1ccc(C2(c3ccccc3)OCC(Cn3cncn3)O2)cc1 (stereo not shown),-0.819%
20,CCOc1ccc(NC(=O)CN2C(=O)CSC(C)C2=O)cc1 (stereo not shown),12.2%
21,Cl.Clc1ccccc1CN1CCNCC1,1.68%
22,Cc1ccc(S(=O)(=O)N2CCC(C(=O)NCCCN3CCCC3=O)CC2)cc1C,7.98%
23,CCCOc1cc(NCc2ccccc2)c2ncn(C(C)C)c2c1,0.563%

row,Structure (SMILES),"hERG current change (%, negative = inhibition) at 10uM"
1,COc1ccccc1OCC#CCN1CCCCCC1.O=C(O)C(=O)O,12%
2,Cc1ncc(CO)c(/C=N/N=C/c2ccccc2O)c1O,13.7%
3,Cc1c(=O)n(OCc2ccc(Cl)cc2)c2ccccc2[n+]1[O-],6.09%
4,O=C(O)C(=O)O.O=[N+]([O-])c1cccc(CN2CCN(Cc3ccc(Cl)cc3)CC2)c1,-70.8%
5,CCN(CC(=O)NC1CCS(=O)(=O)C1)Cc1nc2c(Br)cc(Br)cc2c(=O)[nH]1 (stereo not shown),-0.153%
6,C/C(=N\NC(=O)C1COc2ccccc2O1)c1ccc(N2CCOCC2)cc1 (stereo not shown),-11.1%
7,O=C(NCCc1ccccc1)c1ccc(Br)o1,-15.4%
8,Cc1ccc(C)c(NC(=O)CN(C)C(=O)[C@@H](NC(N)=O)C(C)C)c1,19%
9,Cc1ccc(NC(=O)c2cnccn2)c(Br)c1,12.8%
10,CCOC(=O)c1cc2nc(Nc3ccc(OC)cc3)sc2s1,0.75%
11,CSc1cccc(NC(=O)COC(=O)c2ccccn2)c1,-5.55%
12,CCc1c(C)sc(NC(=S)Nc2cccnc2)c1C(=O)OC,15%
13,CCCN1CCC(=O)N([C@H](CO)CC(C)C)CC1,20%
14,CC(C)C(=O)Nc1cccc(C(=O)Nc2nncs2)c1,-6%
15,COC(c1ccccc1)c1c(-c2ccccc2)nn(C)c1Cl (stereo not shown),-8.59%
16,COCCNC(=O)C(c1cccs1)N(C(=O)Cn1nnc2ccccc21)c1ccc(OC)cc1 (stereo not shown),3.99%
17,CCn1c(CCNC(=O)c2ccco2)nc2ccccc21,-3.04%
18,CC(C)c1[nH]c(=O)c(C#N)c2c1CSC(C)(C)C2,8.38%
19,CC(NS(=O)(=O)c1ccc(Br)cc1)c1ccccc1 (stereo not shown),10.6%
20,COC(=O)COc1cc(OCC(=O)OC)c2c(C)c(Cl)c(=O)oc2c1,3.64%
21,CCCNC(=O)N1[C@H]2CC[C@@H]1C(C(=O)OC)=C(c1ccc(OC(F)(F)F)cc1)C2,-27.4%
22,Cc1cccc(C(=O)Nc2nnc(COc3ccccc3)s2)c1,5.6%
23,CO/N=C(/C(=O)N[C@@H]1C(=O)N2C(C(=O)[O-])=CCS[C@H]12)c1cnc(N)s1.[Na+],19.1%

row,Structure (SMILES),"hERG current change (%, negative = inhibition) at 10uM"
1,Cn1c(=O)cc(SCC(=O)NCc2ccc(F)cc2)c2ccccc21,-17.4%
2,O=C1c2ccccc2-c2nc3ccccc3cc21,18.3%
3,CC(OC(=O)CCc1nc2ccccc2[nH]c1=O)c1ccccc1 (stereo not shown),-5.1%
4,Cc1c(OCc2nn[nH]n2)ccc2c3c(c(=O)oc12)CCCC3,-4.83%
5,CC1=NN(C(=O)CCc2ccccc2)C(O)(c2ccncc2)C1 (stereo not shown),3.31%
6,CCOc1ccc(CC(=O)NCCS(=O)(=O)N2CCN(c3ccccc3)CC2)cc1,11.2%
7,CC(C)(C)NC(=O)c1cc(NC(=O)c2cccs2)cc(NC(=O)c2cccs2)c1,1.07%
8,Cc1c(Cl)cccc1-n1c(SCC(=O)NCc2cccs2)nnc1-c1ccncc1,-29.1%
9,O=C(CSc1nnnn1C1CCCCC1)NCc1ccco1,4.92%
10,O=C(CCc1nnc2ccc(NCc3ccco3)nn12)Nc1ccc(F)cc1F,-4.76%
11,COc1ccc(Cl)cc1C(=O)NC(C)C,2.67%
12,Cc1ccccc1NC(=O)Cn1nnc2c(cnn2-c2ccc(F)cc2)c1=O,1.68%
13,COCCn1c(=O)c2ccccc2c2ccccc2c1=O,10.2%
14,O=C1CC(N(CCc2ccccc2)C(=S)Nc2ccccc2)C(=O)N1c1ccc(Br)cc1 (stereo not shown),-4.13%
15,CCOC(=O)C1CCCN(C(=O)Cn2ncc3c([nH]c4ccc(C)cc43)c2=O)C1 (stereo not shown),-11.1%
16,COc1cc2c3c([nH]c2cc1F)C(=O)NCC3,7.72%
17,Cc1ccc(S(=O)(=O)CC(=O)N(C)C)cc1,7.19%
18,O=C(COC(=O)c1ccccc1-n1cnnn1)c1ccccc1,4.94%
19,O=C(CN1CCN(c2ccccc2F)CC1)c1c[nH]c2ccc(F)cc12,-11.7%
20,CSCC[C@H](NC(=O)C1=NN(c2c(F)c(F)cc(F)c2F)C(=O)CC1)c1nc2ccccc2[nH]1,-13.3%
21,CC1(C)Cc2c(sc3nc(-c4ccccc4Cl)n(N)c(=O)c23)CO1,-0.307%
22,O=C(CCl)N(c1ccccc1)c1c[nH]c2ccccc12,3.24%
23,CCN(CC)C(=O)CN(c1cc2c(cc1OC)oc1ccccc12)S(=O)(=O)c1ccccc1,0.38%

row,Structure (SMILES),"hERG current change (%, negative = inhibition) at 10uM"
1,CCSCc1nnc(SCC(=O)Nc2nccs2)n1CC,8.61%
2,O=C(NCC1CCCO1)c1ccc(NC(=O)c2ccc(Br)cc2)cc1 (stereo not shown),9.76%
3,NS(=O)(=O)c1ccc(NC(NC(=O)c2cccnc2)C(Cl)(Cl)Cl)cc1 (stereo not shown),6.08%
4,CC(C)(C)c1ccc(C(=O)N/N=C/c2ccc(OCCCF)cc2)cc1,3.03%
5,Cc1cc(Nc2cc(Cl)cc(Cl)c2)nc(N)n1,-29.6%
6,Cc1nc2ccccc2n1C(=O)N1CCOCC1,5.96%
7,CC(C)(C)c1ccc(CCC2OCC(CN3CCOCC3)O2)cc1 (stereo not shown),-7.38%
8,CC(=O)NS(=O)(=O)c1ccc(NC(=O)/C=C/c2ccccc2)cc1,6.8%
9,O=C(C1CC(=O)N(c2ccc(F)cc2)C1)N1CCN(c2ccccc2)CC1 (stereo not shown),-58.3%
10,CCc1nnc(SCC(=O)Nc2ccccc2)n1CC1CCCO1 (stereo not shown),2.61%
11,CC(C)c1nnc(NC(=O)COC(=O)/C=C/c2ccc([N+](=O)[O-])cc2)s1,-4.83%
12,CCOc1ccc(/C=C/c2[nH]c(=O)[nH]c(=O)c2[N+](=O)[O-])cc1,8.01%
13,O=C(CCC(=O)N(CC(=O)NC1CCCCC1)Cc1ccccc1)Nc1ccccn1,4.24%
14,CC1(C)Cc2c(sc3c2C(=O)N(c2ccccc2)C2=NCCN23)CS1.Cl,-5.58%
15,Cc1ccc(Cn2ccc(NC(=O)c3cc(-c4ccc(Br)cc4)on3)n2)cc1,22.6%
16,CC(C)[N+]1(C)[C@@H]2CC[C@H]1CC(OC(=O)C(CO)c1ccccc1)C2.O.[Br-] (stereo partly shown),5.51%
17,COc1cc(C(=O)OCc2cccc(OC)c2OC)ccc1OCC(=O)N1CCOCC1,-22.9%
18,O=C(O)C1CCN(S(=O)(=O)c2cccc3nonc23)CC1,9.01%
19,CCCCOc1ccc(C(=O)N2CCCC2C(=O)O)cc1 (stereo not shown),-5.76%
20,COC(=O)CC1C(=O)NCCN1C(=O)c1cc([N+](=O)[O-])ccc1Cl (stereo not shown),15%
21,O=C(O)[C@@H]1CCCN1S(=O)(=O)c1cccc(S(=O)(=O)N2CCC[C@H]2C(=O)O)c1,16.5%
22,Cc1cccc(OCc2nnc(SCC(=O)Nc3cccc(C(=O)N4CCOCC4)c3)n2C)c1C,-12.7%
